Results taken from PubChem BioAssay AID686979 (National Center for Advancing Translational Sciences (NCATS), 2013).
Among all 420,000 compounds or so, about 50,000 (12%) were called active. The inconclusive results got no clear call from the source; some entries with a clear call stand among them for comparison. Calls follow the shape of the dose curve; as a rule, active = well fitted inhibition curve with a large enough effect; inconclusive = small, poorly fitted or top-dose-only effect; inactive = flat fitted curve, though single readings scatter. No potency is given beside an inconclusive call; the fits are too rough.
% is scaled to controls: 0 for no effect and ±100 for the full control effect; potency is read from the fitted curve at half-maximal effect; tags tell the direction and shape of the fitted curve.

Assay: qHTS for Inhibitors of human tyrosyl-DNA phosphodiesterase 1 (TDP1): qHTS in cells in presence of CPT; also: nearly all actives have a fitted effect of over 55% in size
Conditions: chicken DT40 Tdp1-/-;hTDP1 cells + 20 nM CPT, ATP luminescence, 48 h; activity change, negative = growth inhibition: at 46.2 µM (top of the series) unless noted
Outline: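 Chicken DT40 Tdp1-/- cells stably complemented with human TDP1 were seeded at 400 cells/well in medium containing 20 nM camptothecin, exposed to pin-transferred compounds, and grown at 37 °C for at least 48 hr. Viability was read as ATP luminescence.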
In the case of `CCOc1ccc(CNS(=O)(=O)c2cccs2)cc1OCC`, the “activity change, negative = growth inhibition” value is reported as inactive: -4.89%. For `CCCCNC(=O)CSc1nc(N)c(C(=O)Nc2ccc(OC)cc2)s1`, the Potency was inconclusive [inhibitor, single point]. For `COc1cc(C)cc2oc(=O)c(CC(=O)N3CCN(C(=O)C4COc5ccccc5O4)CC3)c(C)c12` (stereo not drawn), the Potency was inconclusive [inhibitor, single point]. In the case of `Cc1cccc(NC(=O)CSCC(=O)NNC(=O)c2ccoc2C)c1`, the “activity change, negative = growth inhibition” value is reported as inactive: 3.46%. For `COc1ccccc1NS(=O)(=O)c1cc(NC(=O)c2sccc2C)ccc1N1CCOCC1`, the Potency was active: 20.6 µM. In the case of `N#Cc1cc(C#N)c(SCC(=O)N2CC(=O)Nc3ccccc32)nc1N`, the Potency is reported as active: 20.6 µM. With `CCc1ccc2[nH]c(=O)c(CN(Cc3cccnc3)Cc3nnnn3Cc3ccccc3)cc2c1` the Potency was active: 11.2 µM. In the case of `CCOc1ccc(N(CC(=O)N2CCN(c3ccccc3OC)CC2)S(=O)(=O)c2ccc(F)cc2)cc1`, the Potency is reported as inconclusive [inhibitor, single point]. For `CCn1cc(CN2CCCC(CNS(=O)(=O)c3cccc4cccnc34)C2)cn1` (stereo not drawn), the “activity change, negative = growth inhibition” value was inactive: -5.59%. For `CS(=O)(=O)c1ccc(-c2nc(-c3ccc(F)cc3)c(-c3ccncc3)[nH]2)cc1`, the Potency was inconclusive [inhibitor, single point]. With `O=C(CN(Cc1ccccc1)C1=NCCS1)c1ccccc1` the Potency was inconclusive [inhibitor, single point]. With `CC(C)CNC(=S)N1CCC(C(=O)c2ccc3c(c2)OCCO3)CC1` the Potency was inconclusive [inhibitor, single point]. In the case of `COc1ccc(CN2CCN(C(=O)Cn3ncn4cccc4c3=O)CC2)c(OC)c1OC`, the “activity change, negative = growth inhibition” value is reported as inactive: -25.8%. For `O=C(Nc1c(-c2ccccc2)nc2sccn12)c1ccccc1`, the activity change, negative = growth inhibition was inconclusive: -33.7% [inhibitor]. For `CC(C)(C)c1ccc(C(=O)NNC(=O)Cc2cccc3ccccc23)cc1`, the Potency was inconclusive [inhibitor, partial curve, poor fit]. In the case of `COc1cc2c(cc1OC)CN(C(=O)c1ccc([N+](=O)[O-])o1)CC2`, the Potency is reported as inconclusive [inhibitor, partial curve]. For `Cc1ccc(S(=O)(=O)N2CCN(C(=O)CSc3cc(C)ccc3C)CC2)c(C)c1`, the Potency was inconclusive [inhibitor, single point]. In the case of `CCCC(=O)N1CCC1(C)C(=O)Nc1ccc(-n2cccc2)cc1` (stereo not drawn), the “activity change, negative = growth inhibition” value is reported as inactive: -29.4%. In the case of `CCc1ccc(CNC(=O)C(CC)n2ccc3cc(S(=O)(=O)N4CCCCC4)ccc32)cc1` (stereo not drawn), the Potency is reported as inconclusive [inhibitor, single point]. With `CN(C)/N=C/C=C1\CCC/C(=C\c2ccc(F)c(F)c2)C1=O` the Potency was inconclusive [inhibitor, single point]. For `COc1ccc(CNS(=O)(=O)c2cc(C(=O)Nc3cc(Cl)cc(Cl)c3)ccc2F)cc1`, the Potency was inconclusive [inhibitor, single point]. With `CN1C/C(=C/c2ccsc2)C(=O)/C(=C/c2ccsc2)C1` the Potency was active: 10.3 µM. For `CC(=O)Nc1ccc(SCC(=O)N2CCN(S(=O)(=O)c3ccccc3)CC2)cc1`, the “activity change, negative = growth inhibition” value was inactive: 4.26%. In the case of `CCCC(=O)C1=C(O)C(C(=O)OC)C(C)(C)CC1=NC` (stereo not drawn), the “activity change, negative = growth inhibition” value is reported as inactive: -14.4%. With `CSCCC(c1nnnn1C1CCCCC1)N1CCN(C/C=C/c2ccccc2)CC1` (stereo not drawn) the Potency was inconclusive [inhibitor, single point]. With `COc1ccccc1C(=O)NCc1ccc2c(c1)CCN2C(=O)c1cccc(C)c1` the Potency was inconclusive [inhibitor, single point]. For `CN(CC(=O)Nc1cccc2c1CCCC2)S(=O)(=O)c1ccc(Br)cc1`, the Potency was inconclusive [inhibitor, partial curve]. For `Cc1ccc2[nH]c3c(c2c1)CCCC3=O`, the “activity change, negative = growth inhibition” value was inactive: -4.55%. With `O=C(NC1CCCC1)C(C1CC1)n1c(-c2ccccn2)nc2ccccc21` (stereo not drawn) the Potency was active: 9.2 µM. In the case of `CCOC(=O)Cn1c(=O)oc2cc(S(=O)(=O)Nc3cc(OC)cc(OC)c3)ccc21`, the Potency is reported as active: 16.4 µM. For `COC(=O)C1=CN(c2ccc(Oc3ccccc3)cc2)C(N)=C(C#N)C1c1cccc(F)c1` (stereo not drawn), the Potency was inconclusive [inhibitor, single point]. In the case of `O=C(C[C@H]1C[C@@H]2c3cc(NS(=O)(=O)c4ccccc4)ccc3O[C@@H]2[C@H](CO)O1)NC1CCCC1`, the “activity change, negative = growth inhibition” value is reported as inactive: -28.4%. For `N#CC(c1ccccc1)N(CCCCl)C(=O)c1ccc(Br)cc1` (stereo not drawn), the Potency was inconclusive [inhibitor, single point]. For `CCOC(=O)CSc1nc2nc(Cl)c(Cl)nc2[nH]1`, the Potency was inconclusive [inhibitor, single point]. In the case of `COc1ccc(-c2noc(CSc3nc4ccccc4c(=O)n3-c3ccccc3)n2)cc1`, the Potency is reported as inconclusive [inhibitor, single point]. In the case of `CCc1ccccc1Nc1nn2c(=O)c3ccc(C(=O)NCc4cccs4)cc3nc2s1`, the Potency is reported as inconclusive [inhibitor, single point]. In the case of `CCOC(=O)c1cnn(-c2ccccc2)c1-n1cccc1C(=O)C(=O)Nc1ccccc1`, the activity change, negative = growth inhibition is reported as inconclusive: -30.7% [inhibitor]. In the case of `Cc1ccc(NC(=O)CCC(=O)NNS(=O)(=O)c2ccccc2)c(C)c1`, the Potency is reported as inconclusive [inhibitor, single point]. With `O=Cc1cc2cc3c(cc2nc1Cl)OCCO3` the Potency was inconclusive [inhibitor, single point]. With `Cc1ccc(S(=O)(=O)N2CCC(=O)N(C(COCc3cccc(C(F)(F)F)c3)Cc3ccccc3)CC2)cc1` (stereo not drawn) the Potency was inconclusive [inhibitor, single point]. In the case of `O=C(CN1CCCCC1)N1c2ccccc2Sc2ccc(C(F)(F)F)cc21`, the Potency is reported as inconclusive [inhibitor, single point]. For `O=C(Nc1ccc2c(c1)OCCO2)C(c1cc2ccccc2o1)N1CCN(c2ccc(F)cc2)CC1` (stereo not drawn), the Potency was inconclusive [inhibitor, single point]. For `COc1ccc(N2CCN(c3nc(Cl)nc(Nc4ccc(F)cc4)n3)CC2)cc1`, the Potency was active: 18.4 µM.
